# Experimental data from the supplement of paper PMC8728848.
# The list shows a part of the results.
# Key:
# Experiment in all cases: glycan array binding signal (z-score within array); higher = stronger binding
# Settings in all cases: glycan notation: IUPAC condensed, linker removed
# [1] = target: GlcNAc(b1-2)Man(a1-3)[GlcNAc(b1-4)][GlcNAc(b1-2)Man(a1-6)]Man(b1-4)GlcNAc(b1-4)GlcNAc
# In short: (§1)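 From the Consortium for Functional Glycomics database, 3228 arrays were curated, keeping only those whose protein sequence was available. Binding is given as a within-array Z-score averaged across arrays sharing a protein sequence and across linkers. Negative Z-scores can be read as non-binding.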
# [2] = target: GlcNAc(b1-2)[GlcNAc(b1-4)]Man(a1-3)[GlcNAc(b1-2)Man(a1-6)]Man(b1-4)GlcNAc(b1-4)GlcNAc
# In short: as §1
# [3] = target: GlcNAc(b1-2)[GlcNAc(b1-4)]Man(a1-3)[GlcNAc(b1-4)][GlcNAc(b1-2)Man(a1-6)]Man(b1-4)GlcNAc(b1-4)GlcNAc
# In short: as §1
# [4] = target: GlcNAc(b1-2)[GlcNAc(b1-4)]Man(a1-3)[GlcNAc(b1-4)][GlcNAc(b1-2)[GlcNAc(b1-6)]Man(a1-6)]Man(b1-4)GlcNAc(b1-4)GlcNAc
# In short: as §1
# [5] = target: GlcNAc(b1-2)[GlcNAc(b1-6)]Man(a1-6)[GlcNAc(b1-2)Man(a1-3)]Man(b1-4)GlcNAc(b1-4)GlcNAc
# In short: as §1
# [6] = target: GlcNAc(b1-2)[GlcNAc(b1-6)]Man(a1-6)[GlcNAc(b1-2)Man(a1-3)][GlcNAc(b1-4)]Man(b1-4)GlcNAc(b1-4)GlcNAc
# In short: as §1
# GlcNAc(b1-3)Gal = target: GlcNAc(b1-3)Gal
# In short: as §1
# [7] = target: GlcNAc(b1-3)Gal(b1-3)GalNAc
# In short: as §1
# GlcNAc(b1-3)Gal(b1-4)Glc = target: GlcNAc(b1-3)Gal(b1-4)Glc
# In short: as §1
# [8] = target: GlcNAc(b1-3)Gal(b1-4)GlcNAc
# In short: as §1
# [9] = target: GlcNAc(b1-3)Gal(b1-4)GlcNAc(b1-3)Gal(b1-4)GlcNAc
# In short: as §1
# GlcNAc(b1-3)GalNAc = target: GlcNAc(b1-3)GalNAc
# In short: as §1
# GlcNAc(b1-3)Man = target: GlcNAc(b1-3)Man
# In short: as §1
# [10] = target: GlcNAc(b1-3)[GlcNAc(b1-4)][GlcNAc(b1-6)]GlcNAc
# In short: as §1
# [11] = target: GlcNAc(b1-3)[GlcNAc(b1-6)]Gal(b1-4)GlcNAc
# In short: as §1
# [12] = target: GlcNAc(b1-3)[GlcNAc(b1-6)]GalNAc
# In short: as §1
# [13] = target: GlcNAc(b1-3)[GlcNAc(b1-6)]GlcNAc
# In short: as §1
# [14] = target: GlcNAc(b1-3)[GlcNAc(b1-6)]GlcNAc(b1-4)GlcNAc
# In short: as §1
# [15] = target: GlcNAc(b1-4)Gal(b1-4)GlcNAc
# In short: as §1
# GlcNAc(b1-4)GlcNAc = target: GlcNAc(b1-4)GlcNAc
# In short: as §1
# [16] = target: GlcNAc(b1-4)GlcNAc(b1-4)GlcNAc
# In short: as §1
# [17] = target: GlcNAc(b1-4)GlcNAc(b1-4)GlcNAc(b1-4)GlcNAc(b1-4)GlcNAc
# In short: as §1
# [18] = target: GlcNAc(b1-4)GlcNAc(b1-4)GlcNAc(b1-4)GlcNAc(b1-4)GlcNAc(b1-4)GlcNAc
# In short: as §1
# [19] = target: GlcNAc(b1-4)[GlcNAc(b1-6)]GalNAc
# In short: as §1
# [20] = target: GlcNAc(b1-6)Gal(b1-4)GlcNAc
# In short: as §1
# GlcNAc(b1-6)GalNAc = target: GlcNAc(b1-6)GalNAc
# In short: as §1
# GlcNAc3Prop(b1-4)GlcNAc = target: GlcNAc3Prop(b1-4)GlcNAc
# In short: as §1
# [21] = target: GlcNAc6S(b1-3)Gal(b1-4)GlcNAc
# In short: as §1
# Kdn(a2-3)Gal(b1-3)GalNAc = target: Kdn(a2-3)Gal(b1-3)GalNAc
# In short: as §1
# Kdn(a2-3)Gal(b1-3)GlcNAc = target: Kdn(a2-3)Gal(b1-3)GlcNAc
# In short: as §1
# Kdn(a2-3)Gal(b1-4)Glc = target: Kdn(a2-3)Gal(b1-4)Glc
# In short: as §1
# Kdn(a2-3)Gal(b1-4)GlcNAc = target: Kdn(a2-3)Gal(b1-4)GlcNAc
# In short: as §1
# [22] = target: Kdn(a2-3)Gal(b1-4)[Fuc(a1-3)]GlcNAc
# In short: as §1
# Kdn(a2-6)Gal(b1-4)GlcNAc = target: Kdn(a2-6)Gal(b1-4)GlcNAc
# In short: as §1
# [23] = target: Man(a1-2)Man(a1-2)Man(a1-3)Man
# In short: as §1
# [24] = target: Man(a1-2)Man(a1-2)Man(a1-3)[Man(a1-2)Man(a1-3)[Man(a1-2)Man(a1-6)]Man(a1-6)]Man(b1-4)GlcNAc(b1-4)GlcNAc
# In short: as §1
# [25] = target: Man(a1-2)Man(a1-2)Man(a1-3)[Man(a1-2)Man(a1-6)[Man(a1-3)]Man(a1-6)]Man(b1-4)GlcNAc(b1-4)GlcNAc
# In short: as §1
# [26] = target: Man(a1-2)Man(a1-2)Man(a1-6)[Man(a1-3)]Man
# In short: as §1
# Man(a1-2)Man(a1-3)Man = target: Man(a1-2)Man(a1-3)Man
# In short: as §1
# [27] = target: Man(a1-2)Man(a1-3)[Man(a1-2)Man(a1-6)]Man
# In short: as §1
# [28] = target: Man(a1-2)Man(a1-3)[Man(a1-2)Man(a1-6)]Man(a1-6)[Man(a1-2)Man(a1-2)Man(a1-3)]Man
# In short: as §1
# [29] = target: Man(a1-2)Man(a1-3)[Man(a1-2)Man(a1-6)]Man(a1-6)[Man(a1-2)Man(a1-2)Man(a1-3)]Man(b1-4)GlcNAc(b1-4)GlcNAc
# In short: as §1
# [30] = target: Man(a1-2)Man(a1-3)[Man(a1-3)[Man(a1-6)]Man(a1-6)]Man(b1-4)GlcNAc(b1-4)GlcNAc
# In short: as §1
# [31] = target: Man(a1-2)Man(a1-3)[Man(a1-6)]Man(a1-6)[Man(a1-2)Man(a1-3)]Man(b1-4)GlcNAc(b1-4)GlcNAc
# In short: as §1
# [32] = target: Man(a1-2)Man(a1-6)[Man(a1-3)]Man(a1-6)[Man(a1-2)Man(a1-2)Man(a1-3)]Man
# In short: as §1
binder,measurement,setting,value
"AAL (Aleuria aurantia), P18891 (protein) PTEFLYTSKIAAISWAATGGRQQRVYFQDLNGKIREAQRGGDNPWTGGSSQNVIGEAKLFSPLAAVTWKSAQGIQIRVYCVNKDNILSEFVYDGSKWITGQLGSVGVKVGSNSKLAALQWGGSESAPPNIRVYYQKSNGSGSSIHEYVWSGKWTAGASFGSTVPGTGIGATAIGPGRLRIYYQATDNKIREHCWDSNSWYVGGFSASASAGVSIAAISWGSTPNIRVYWQKGREELYEAAYGGSWNTPGQIKDASRPTPSLPDTFIAANSSGNIDISVFFQASGVSLQQWQWISGKGWSIGAVVPTGTPAGW",glycan array binding signal (z-score),[1],-0.43
same,glycan array binding signal (z-score),[2],-0.425
same,glycan array binding signal (z-score),[3],-0.431
same,glycan array binding signal (z-score),[4],-0.418
same,glycan array binding signal (z-score),[5],-0.377
same,glycan array binding signal (z-score),[6],-0.444
same,glycan array binding signal (z-score),GlcNAc(b1-3)Gal,-0.501
same,glycan array binding signal (z-score),[7],-0.515
same,glycan array binding signal (z-score),GlcNAc(b1-3)Gal(b1-4)Glc,-0.491
same,glycan array binding signal (z-score),[8],-0.526
same,glycan array binding signal (z-score),[9],-0.545
same,glycan array binding signal (z-score),GlcNAc(b1-3)GalNAc,-0.47
same,glycan array binding signal (z-score),GlcNAc(b1-3)Man,-0.418
same,glycan array binding signal (z-score),[10],-0.468
same,glycan array binding signal (z-score),[11],-0.514
same,glycan array binding signal (z-score),[12],-0.426
same,glycan array binding signal (z-score),[13],-0.532
same,glycan array binding signal (z-score),[14],-0.567
same,glycan array binding signal (z-score),[15],-0.525
same,glycan array binding signal (z-score),GlcNAc(b1-4)GlcNAc,-0.432
same,glycan array binding signal (z-score),[16],-0.502
same,glycan array binding signal (z-score),[17],-0.52
same,glycan array binding signal (z-score),[18],-0.518
same,glycan array binding signal (z-score),[19],-0.515
same,glycan array binding signal (z-score),[20],-0.506
same,glycan array binding signal (z-score),GlcNAc(b1-6)GalNAc,-0.474
same,glycan array binding signal (z-score),GlcNAc3Prop(b1-4)GlcNAc,-0.425
same,glycan array binding signal (z-score),[21],-0.391
same,glycan array binding signal (z-score),Kdn(a2-3)Gal(b1-3)GalNAc,-0.425
same,glycan array binding signal (z-score),Kdn(a2-3)Gal(b1-3)GlcNAc,-0.506
same,glycan array binding signal (z-score),Kdn(a2-3)Gal(b1-4)Glc,-0.439
same,glycan array binding signal (z-score),Kdn(a2-3)Gal(b1-4)GlcNAc,-0.513
same,glycan array binding signal (z-score),[22],-0.19
same,glycan array binding signal (z-score),Kdn(a2-6)Gal(b1-4)GlcNAc,-0.435
same,glycan array binding signal (z-score),[23],-0.508
same,glycan array binding signal (z-score),[24],-0.622
same,glycan array binding signal (z-score),[25],-0.611
same,glycan array binding signal (z-score),[26],-0.514
same,glycan array binding signal (z-score),Man(a1-2)Man(a1-3)Man,-0.513
same,glycan array binding signal (z-score),[27],-0.516
same,glycan array binding signal (z-score),[28],-0.425
same,glycan array binding signal (z-score),[29],-0.488
same,glycan array binding signal (z-score),[30],-0.62
same,glycan array binding signal (z-score),[31],-0.518
same,glycan array binding signal (z-score),[32],-0.436
